Experimental data as given in the RNAGym collection of RNA variant scans (doi:10.1093/nar/gkz1192).
The source gives no read counts; variants with many changes may rest on few reads.

B1: CPEB3 Ribozyme (parent)
chain: UAACAGGGGGCCACAGCAGAAGCGUUCACGUCGCAGCCCCUGUCAGAUUCUGGUGAAUCUGCGAAUUCUGCUGUAUAUCUC

Variants of: B1
Assay: self-cleavage, relative activity (ratio to wild type); higher = more cleavage; in vitro, sequencing
Method in brief: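 Relative activity compares each variant's cleaved/total read fraction with that of the unmutated ribozyme. To get these fractions, barcoded CPEB3 ribozyme libraries from rounds of error-prone PCR were transcribed with T7 RNA polymerase for 5 hours at 37°C and then given 15 min of DNase I treatment before EDTA was added. The RNAs were reverse transcribed with template switching and sequenced on Illumina, and DNA sequencing linked barcodes to variants. A minimum of 5 reads applied, and three batches were averaged.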

| Variant | self-cleavage |
| --- | --- |
| UAACAGGGGGCCACAGCGGAAGCGUUCAUGUCGCAGCCCCUGUCAGAUCCUGGUGAAUCUGCGAAUUCUGCUGUAUAUCUC [A18G C29U U49C] | 0.1 |
| UAACAGGGGGCCACAGCGGAAGCGUUCACGUCGCAGCCCCUGUCAGAUUCUGGUGGAUCUGCGAAUUCUGCGGUAUAUGUC [A18G A56G U72G C79G] | 0.37 |
| UAACAGGGGGCCACAGCGGAAGCGUUCACGUCGCAGCCCCUGUCAGAUUCUGGUGGAUCUGCGAGUUCUGCUGUAUAUCUC [A18G A56G A65G] | 0.2 |
| UAACAGGGGGCCACAGCGGAAGAGUUAACGCCGCAGCCCCUGUCAGAUUCCGGUGAAUCUGCGAAUUCUGCUGUAUAUCUC [A18G C23A C27A U31C U51C] | 0.14 |
| UAACAGGGGGCCACAGCGGAAGCGUUCACGUCGCAGCCCCUGUCAGAUUCUGGUGGAUCUGCGAAUUCUGCUGCAUAUCUC [A18G A56G U74C] | 0.89 |
| UAACAGGGGGCCACAGCGGAAGCGUUCACGUCGCAGCCCCUGUCAGAUUCUGGUGGAUCUGCGAAUUCUGCUGAAUAUCUC [A18G A56G U74A] | 0.87 |
| UAACAGGGGGCCACAGCGGAAGCGUUCACGUCGCAGCCCCUGUCAGAUUCUGGUGAAUCUGCGUAUUCUGCUGCAUAUCUC [A18G A64U U74C] | 0.49 |
| UAACAGGGGGCCACAGCGGAAGCGUUCACGUCGCAGCCCCUGUCAGAUUCUGGUGGAUCUGCGAAUUCUGCUGUAUAUCCC [A18G A56G U80C] | 0.6 |
| UAACAGGGGGCCACAGCGGAAGCGUUGACGUCGCUGCCCCUGUCAGAUUCUGGUGAAUCUGCGGAUUCUGCUGUAUAUCUC [A18G C27G A35U A64G] | 0.1 |
| UAACAGGGGGCCACAGCGGAAGCGUUUACGUCGCAGCCCCUGUCAGAUUCUGGUGAAUCCGCGAAUUCUGCUGUAUAUCUC [A18G C27U U60C] | 0.21 |
| UAACAGGGGGCCACAGCGGAAGCGUUCACGUCGCAGCCCCUGUCAGAUUCUGGUGUAUCAGCGAGUCCCGCUGUAUAUCUC [A18G A56U U60A A65G U67C U69C] | 0.19 |
| UAACAGGGGGCCACAGCGGAAGCGUUAACGUCGCAGCACCUAUUAGAUUCUGGUGAAUCUGCGAAUUCUGCUGUAUAUCUC [A18G C27A C38A G42A C44U] | 0.05 |
| UAACAGGGGGCCACAGCGGAAGCGUUCACGUAGCAGCCCCAGUCAGACUCUGGUGAAUCUGCGAACUCUGCUGUAUAUCUC [A18G C32A U41A U48C U66C] | 0.09 |
| UAACAGGGGGCCACAGCGGAAGUGCUCACGUCGCAGCCCCUGUCAGAUUCUGGUGAGUCUGCGAAUUCUGCUGUAUAUCUC [A18G C23U U25C A57G] | 0.1 |
| UAACAGGGGGCCACAGCGGAAGCGUUCACGUCGCAGCCCCUGUCAGAUUCUGGUGGAUCUGCGAAUUCUGCUGUAGACCUC [A18G A56G U76G U78C] | 0.46 |
| UAACAGGGGGCCACAGCGGAAGCGUUCACGUCGCAGCCCCUGUCAGGUUCUGGUGAAUCUGCGAAUUCUGCUGUAUAUUUC [A18G A47G C79U] | 0.33 |
| UAACAGGGGGCCACAGCGGAAGCGUUCACGUCGCAGCCCCUGUCAGAUUCUGGUGUAUCUGCGAGUUCUGCUGUAUAUCUC [A18G A56U A65G] | 0.16 |

| Variant | self-cleavage |
| --- | --- |
| UAACAGGGGGCCACAGCGGAAGUGUUCACGUCGCGGCCCCUGACAGGUUCUGGUGAAUCUGCGAAUUCUUCUGUAUAUCUC [A18G C23U A35G U43A A47G G70U] | 0.15 |
| UAACAGGGGGCCACAGCGGAAGCGUUCACGUCGCAGCCCCUGUCAGGUUCUGGUGAAUCUGCGAAUUCCGCUGUAUAACUC [A18G A47G U69C U78A] | 1.19 |
| UAACAGGGGGCCACAGCGGAAGCGUUCACGUCGCAGCACCAGUCAGAUUCUGGUGAAUCUGCGAAUUCUGCUGUAUAUCUC [A18G C38A U41A] | 0.24 |
| UAACAGGGGGCCACAGCGGAAGCGUUCACGUCGCAGCCCCUGUCAGAUUCUGGUGAGUCUGCGAAUUCUGCUGCAUAUCUC [A18G A57G U74C] | 0.86 |
| UAACAGGGGGCCACAGCGGAAGCGUUCACGUCGCAGCCCCUGUCAGAUUCUGGUGAAUCUGCGAGUUUUGCUGUAUAUCUC [A18G A65G C68U] | 0.08 |
| UAACAGGGGGCCACAGCGGAAGCGUUCACGUCGCAGCCCCUGUCAGAUUCUGGUGAAUCUGCGUAUUCUGCUGUAUAUCAC [A18G A64U U80A] | 0.31 |
| UAACAGGGGGCCACAGCGGAAGCGUUCACGUCGCAGCCCCUGUCAGUUUCUGGCGAGUCUGCGAAUUCUGCUGUAUAUCUC [A18G A47U U54C A57G] | 0.06 |
| UAACAGGGGGCCACAGCGGAAGCGUUCACGUCGCAGCCCCUGUCAGUUUCUGGUGAGUCUGCGAAUUCAGCUGUAUAUCUC [A18G A47U A57G U69A] | 0.2 |
| UAACAGGGGGCCACAGCGGAAGCGUUCACGUUGCAGCCCCAGUCAGACUCUGGUGAAUCUGCGAAUUCCGCAGUAUAUCUC [A18G C32U U41A U48C U69C U72A] | 0.13 |
| UAACAGGGGGCCACAGCGGAAGCGUUCAUGUCGCAGCCCCUGUCAGAUUCUGGUGAAUCUGCGAAUUCUGCUGCAUAUCUC [A18G C29U U74C] | 0.28 |
| UAACAGGGGGCCACAGCGGAAGCGUUCAGGUCGCAGCCCCUGUCAGAUUCUGGUGAAUCCGCGAAUUCUGCUGUGCAUCUC [A18G C29G U60C A75G U76C] | 0.2 |
| UAACAGGGGGCCACAGCGGAAGCGUUAACGUCGCAGCCCCUGUCGGAUUCUGGUGAACCUGCGAAUUCUGCUGUAUAUCUC [A18G C27A A45G U58C] | 0.08 |
| UAACAGGGGGCCACAGCGGAAGCGUUCACGUCGCAGCCCCUGUCAGGUUCUGGUGAAUCUGCGAAUUCUGCUGUUUAUCUC [A18G A47G A75U] | 0.78 |
| UAACAGGGGGCCACAGCGGAAGCGUUCACGUCGCAGCCCCUGUCAGUUUCAGGCGAAUCCGCGAAUUCUGCAGUAUAUCAC [A18G A47U U51A U54C U60C U72A U80A] | 0.07 |
| UAACAGGGGGCCACAGCGGAAGCGUUCACGUCGCAGCCCCUGUCAGGUCCUGGUGAGUCUGCGGAUUCUGCUGUAUAUCUC [A18G A47G U49C A57G A64G] | 0.36 |
| UAACAGGGGGCCACAGCGGAAGCGUUCACGUAGCGGCCCCUGUCGGAUUCUGGAGAAUCUGCGAAUUCUGCUGCAUAUCUC [A18G C32A A35G A45G U54A U74C] | 0.16 |
| UAACAGGGGGCCACAGCGGAAGCGUUCACGUCGCAGCCCCUGUCAGGUUCUGGGGAAUCUGCGAAUUCUGCUGUAUAUCAC [A18G A47G U54G U80A] | 0.64 |
